The list shows a part of the results.
Experiments:
Test in all cases: glycan array binding signal (z-score within array); higher = stronger binding
Conditions in all cases: glycan notation: IUPAC condensed, linker removed
[1] = target: Gal(b1-4)GlcNAc(b1-2)[Gal(b1-4)GlcNAc(b1-6)]Man(a1-6)[Gal(b1-4)GlcNAc(b1-2)Man(a1-3)]Man(b1-4)GlcNAc(b1-4)[Fuc(a1-6)]GlcNAc
Summary of the method: (§1)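 Glycan array data were curated from 3228 arrays in the Consortium for Functional Glycomics database and kept only where the protein sequence was available. Glycan names were converted to IUPAC-condensed notation, and columns mapping to the same glycan were averaged. The binding signal is a within-array Z-score, averaged across arrays of the same protein sequence at different concentrations or buffers and across linkers. Negative Z-scores can be read as non-binding.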

[2] = target: Gal(b1-4)GlcNAc(b1-2)[Gal(b1-4)GlcNAc(b1-6)]Man(a1-6)[GlcNAc(b1-4)][Gal(b1-4)GlcNAc(b1-2)Man(a1-3)]Man(b1-4)GlcNAc(b1-4)GlcNAc
Summary of the method: as §1

[3] = target: Gal(b1-4)GlcNAc(b1-2)[Gal(b1-4)GlcNAc(b1-6)]Man(a1-6)[GlcNAc(b1-4)][Gal(b1-4)GlcNAc(b1-2)[Gal(b1-4)GlcNAc(b1-4)]Man(a1-3)]Man(b1-4)GlcNAc(b1-4)[Fuc(a1-6)]GlcNAc
Summary of the method: as §1

[4] = target: Gal(b1-4)GlcNAc(b1-3)Gal(b1-3)GalNAc
Summary of the method: as §1

[5] = target: Gal(b1-4)GlcNAc(b1-3)Gal(b1-3)GlcNAc
Summary of the method: as §1

[6] = target: Gal(b1-4)GlcNAc(b1-3)Gal(b1-4)Glc
Summary of the method: as §1

[7] = target: Gal(b1-4)GlcNAc(b1-3)Gal(b1-4)GlcNAc
Summary of the method: as §1

[8] = target: Gal(b1-4)GlcNAc(b1-3)Gal(b1-4)GlcNAc(b1-2)Man(a1-3)[Gal(b1-4)GlcNAc(b1-3)Gal(b1-4)GlcNAc(b1-2)Man(a1-6)]Man(b1-4)GlcNAc(b1-4)GlcNAc
Summary of the method: as §1

[9] = target: Gal(b1-4)GlcNAc(b1-3)Gal(b1-4)GlcNAc(b1-2)Man(a1-3)[Gal(b1-4)GlcNAc(b1-3)Gal(b1-4)GlcNAc(b1-2)Man(a1-6)]Man(b1-4)GlcNAc(b1-4)[Fuc(a1-6)]GlcNAc
Summary of the method: as §1

[10] = target: Gal(b1-4)GlcNAc(b1-3)Gal(b1-4)GlcNAc(b1-2)[Gal(b1-4)GlcNAc(b1-3)Gal(b1-4)GlcNAc(b1-6)]Man(a1-6)[Gal(b1-4)GlcNAc(b1-3)Gal(b1-4)GlcNAc(b1-2)Man(a1-3)]Man(b1-4)GlcNAc(b1-4)GlcNAc
Summary of the method: as §1

[11] = target: Gal(b1-4)GlcNAc(b1-3)Gal(b1-4)GlcNAc(b1-2)[Gal(b1-4)GlcNAc(b1-3)Gal(b1-4)GlcNAc(b1-6)]Man(a1-6)[Gal(b1-4)GlcNAc(b1-3)Gal(b1-4)GlcNAc(b1-2)Man(a1-3)]Man(b1-4)GlcNAc(b1-4)[Fuc(a1-6)]GlcNAc
Summary of the method: as §1

[12] = target: Gal(b1-4)GlcNAc(b1-3)Gal(b1-4)GlcNAc(b1-3)Gal(b1-4)GlcNAc
Summary of the method: as §1

[13] = target: Gal(b1-4)GlcNAc(b1-3)Gal(b1-4)GlcNAc(b1-3)Gal(b1-4)GlcNAc(b1-2)Man(a1-3)[Gal(b1-4)GlcNAc(b1-3)Gal(b1-4)GlcNAc(b1-3)Gal(b1-4)GlcNAc(b1-2)Man(a1-6)]Man(b1-4)GlcNAc(b1-4)GlcNAc
Summary of the method: as §1

[14] = target: Gal(b1-4)GlcNAc(b1-3)Gal(b1-4)GlcNAc(b1-3)Gal(b1-4)GlcNAc(b1-2)Man(a1-3)[Gal(b1-4)GlcNAc(b1-3)Gal(b1-4)GlcNAc(b1-3)Gal(b1-4)GlcNAc(b1-2)Man(a1-6)]Man(b1-4)GlcNAc(b1-4)[Fuc(a1-6)]GlcNAc
Summary of the method: as §1

[15] = target: Gal(b1-4)GlcNAc(b1-3)Gal(b1-4)GlcNAc(b1-3)Gal(b1-4)GlcNAc(b1-2)[Gal(b1-4)GlcNAc(b1-3)Gal(b1-4)GlcNAc(b1-3)Gal(b1-4)GlcNAc(b1-6)]Man(a1-6)[Gal(b1-4)GlcNAc(b1-3)Gal(b1-4)GlcNAc(b1-3)Gal(b1-4)GlcNAc(b1-2)Man(a1-3)]Man(b1-4)GlcNAc(b1-4)[Fuc(a1-6)]GlcNAc
Summary of the method: as §1

[16] = target: Gal(b1-4)GlcNAc(b1-3)Gal(b1-4)GlcNAc(b1-3)Gal(b1-4)GlcNAc(b1-3)Gal(b1-4)GlcNAc(b1-2)Man(a1-3)[Gal(b1-4)GlcNAc(b1-3)Gal(b1-4)GlcNAc(b1-3)Gal(b1-4)GlcNAc(b1-3)Gal(b1-4)GlcNAc(b1-2)Man(a1-6)]Man(b1-4)GlcNAc(b1-4)GlcNAc
Summary of the method: as §1

[17] = target: Gal(b1-4)GlcNAc(b1-3)Gal(b1-4)GlcNAc(b1-3)Gal(b1-4)GlcNAc(b1-3)Gal(b1-4)GlcNAc(b1-2)Man(a1-3)[Gal(b1-4)GlcNAc(b1-3)Gal(b1-4)GlcNAc(b1-3)Gal(b1-4)GlcNAc(b1-3)Gal(b1-4)GlcNAc(b1-2)Man(a1-6)]Man(b1-4)GlcNAc(b1-4)[Fuc(a1-6)]GlcNAc
Summary of the method: as §1

[18] = target: Gal(b1-4)GlcNAc(b1-3)Gal(b1-4)GlcNAc(b1-3)Gal(b1-4)GlcNAc(b1-3)Gal(b1-4)GlcNAc(b1-2)[Gal(b1-4)GlcNAc(b1-3)Gal(b1-4)GlcNAc(b1-3)Gal(b1-4)GlcNAc(b1-3)Gal(b1-4)GlcNAc(b1-6)]Man(a1-6)[Gal(b1-4)GlcNAc(b1-3)Gal(b1-4)GlcNAc(b1-3)Gal(b1-4)GlcNAc(b1-3)Gal(b1-4)GlcNAc(b1-2)Man(a1-3)]Man(b1-4)GlcNAc(b1-4)[Fuc(a1-6)]GlcNAc
Summary of the method: as §1

[19] = target: Gal(b1-4)GlcNAc(b1-3)Gal(b1-4)GlcNAc(b1-3)Gal(b1-4)GlcNAc(b1-3)Gal(b1-4)GlcNAc(b1-3)Gal(b1-4)GlcNAc(b1-2)Man(a1-3)[Gal(b1-4)GlcNAc(b1-3)Gal(b1-4)GlcNAc(b1-3)Gal(b1-4)GlcNAc(b1-3)Gal(b1-4)GlcNAc(b1-3)Gal(b1-4)GlcNAc(b1-2)Man(a1-6)]Man(b1-4)GlcNAc(b1-4)GlcNAc
Summary of the method: as §1

[20] = target: Gal(b1-4)GlcNAc(b1-3)Gal(b1-4)GlcNAc(b1-3)Gal(b1-4)GlcNAc(b1-3)Gal(b1-4)GlcNAc(b1-3)Gal(b1-4)GlcNAc(b1-2)Man(a1-3)[Gal(b1-4)GlcNAc(b1-3)Gal(b1-4)GlcNAc(b1-3)Gal(b1-4)GlcNAc(b1-3)Gal(b1-4)GlcNAc(b1-3)Gal(b1-4)GlcNAc(b1-2)Man(a1-6)]Man(b1-4)GlcNAc(b1-4)[Fuc(a1-6)]GlcNAc
Summary of the method: as §1

[21] = target: Gal(b1-4)GlcNAc(b1-3)Gal(b1-4)GlcNAc(b1-3)Gal(b1-4)GlcNAc(b1-3)Gal(b1-4)GlcNAc(b1-3)Gal(b1-4)GlcNAc(b1-2)[Gal(b1-4)GlcNAc(b1-3)Gal(b1-4)GlcNAc(b1-3)Gal(b1-4)GlcNAc(b1-3)Gal(b1-4)GlcNAc(b1-3)Gal(b1-4)GlcNAc(b1-6)]Man(a1-6)[Gal(b1-4)GlcNAc(b1-3)Gal(b1-4)GlcNAc(b1-3)Gal(b1-4)GlcNAc(b1-3)Gal(b1-4)GlcNAc(b1-3)Gal(b1-4)GlcNAc(b1-2)Man(a1-3)]Man(b1-4)GlcNAc(b1-4)[Fuc(a1-6)]GlcNAc
Summary of the method: as §1

[22] = target: Gal(b1-4)GlcNAc(b1-3)Gal(b1-4)GlcNAc(b1-3)Gal(b1-4)GlcNAc(b1-3)Gal(b1-4)GlcNAc(b1-3)Gal(b1-4)GlcNAc(b1-3)Gal(b1-4)GlcNAc(b1-2)Man(a1-3)[Gal(b1-4)GlcNAc(b1-3)Gal(b1-4)GlcNAc(b1-3)Gal(b1-4)GlcNAc(b1-3)Gal(b1-4)GlcNAc(b1-3)Gal(b1-4)GlcNAc(b1-3)Gal(b1-4)GlcNAc(b1-2)Man(a1-6)]Man(b1-4)GlcNAc(b1-4)GlcNAc
Summary of the method: as §1

[23] = target: Gal(b1-4)GlcNAc(b1-3)Gal(b1-4)GlcNAc(b1-3)GalNAc
Summary of the method: as §1

B1: MSMEG3662-2a (Mycobacterium smegmatis), A0QYH7_MYCS2 (protein)
chain: MGDTLTAGQKLERGGSLQSGNGAYTLTLQDDGNLVLYARDKAVWSTGTNGQDVVRAEVQTDGNFVLYTAEKPVWHTDTKGKKEVKLVLQDDRNLVLYAKDGPAWSSKTDTTEPPPPAPEPEKEAEVAPAAAEEAAPAPVAEPAPAEPAPAAPPPAPPAPRTYTVVSGDTLWAIAERFYGDGSKYQQIADASGIANPDLIHPGQVLTIP
glycan array binding signal (z-score) [1]: -0.001
glycan array binding signal (z-score) [2]: -0.097
glycan array binding signal (z-score) [3]: -0.039
glycan array binding signal (z-score) [4]: -0.046
glycan array binding signal (z-score) [5]: -0.037
glycan array binding signal (z-score) [6]: -0.134
glycan array binding signal (z-score) [7]: -0.073
glycan array binding signal (z-score) [8]: 0.056
glycan array binding signal (z-score) [9]: -0.204
glycan array binding signal (z-score) [10]: -0.109
glycan array binding signal (z-score) [11]: 0.122
glycan array binding signal (z-score) [12]: -0.146
glycan array binding signal (z-score) [13]: 0.125
glycan array binding signal (z-score) [14]: 0.108
glycan array binding signal (z-score) [15]: 0.16
glycan array binding signal (z-score) [16]: -0.076
glycan array binding signal (z-score) [17]: -0.074
glycan array binding signal (z-score) [18]: -0.104
glycan array binding signal (z-score) [19]: -0.039
glycan array binding signal (z-score) [20]: 0.159
glycan array binding signal (z-score) [21]: 0.003
glycan array binding signal (z-score) [22]: 0.013
glycan array binding signal (z-score) [23]: -0.097

Reference: the supplement of paper PMC8728848
